In the supplement of paper PMC11417369:
± gives the standard deviation of the averaged measurements. Some of the results follow.

These sequences were tested on PfAP2-G AP2 domain (GST-tagged) (assay: gcPBM binding intensity (ln(normalized median fluorescence intensity)); higher = stronger DNA binding).
How it was run: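 Plasmodium falciparum DNA-binding domains carrying a GST tag were expressed in E. coli and applied for 1 h, at about 25 μg on average, to an Agilent 4 × 180k array. The array held primer-extended double-stranded 36-bp intergenic genomic probes together with negative controls, and binding took place in 1× PBS with 1% milk, 0.2 mg/ml BSA, 0.5% salmon testes DNA and 0.03% Triton X-100. An Alexa488 anti-GST antibody detected bound protein, and the array was scanned at 488 nm. Binding intensity is taken as the highest Masliner-normalised natural-log median intensity across replicate spots of either probe orientation.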

Sequence | gcPBM binding intensity (ln)
ATCAATACTTTTTTGGGTACATAAATATATATATAT [XGTACX_site8436] | 11.4 ± 0.83
ATATTTTTTAATTTTACACACCATATAAAATAATTC [CACACA_site7339] | 10.04 ± 0.078
AAATATATTATATGTACACACAAAATTAAGGGATAT [CACACA_site1375] | 11.4 ± 0.79
GTGTTTGAAAATAAAGCATGCAAATATATTTGAAAT [TGCATGCA_site386] | 9.82 ± 0.099
ATAAGATTATACAATTGTACGTTGTTCAAGATAAGG [XGTACX_site191] | 11 ± 0.73
TTTTTTTTGTTCATTGTGCACATTGCTTGCATGGAA [GTGCAC_site9693] | 10.5 ± 0.52
AAAATAATAAATAAATGTACATATATATATATATAT [XGTACX_site3078] | 10.9 ± 0.24
ATTATTATTATATTTTGTACATATGTAACAATATAT [XGTACX_site5780] | 10.9 ± 0.45
TCTAACATATAATATTCACACACATATATATATTAT [CACACA_site8236] | 10 ± 0.16
TGGTTTCAATAATTAATAAAATATATTATTGTGAAA [CACACA_negctrl_site442] | 9.625 ± 0.049
ATAATATATTTATAATGTACAAACCATTTGTATTAA [XGTACX_site4370] | 10.6 ± 0.36
AAAAAATGACTTAATATGAGCATATATTATGTTGTT [CACACA_negctrl_site1609] | 9.675 ± 0.049
AAAATATAAAAATGAAGTACAAAAAAAAAAAAAAAA [XGTACX_site8132] | 11.3 ± 1.1
GTTATACACATCAACACACACATACAACGTGGTGTA [CACACA_site6677] | 10.03 ± 0.035
TAAATATGTGTATGTAGTACATAGTGTTTTTTTTTT [XGTACX_site3748] | 11.4 ± 0.76
ATATTATGAATTGTCACACATATATTTAAAAATGTA [CACACA_site4852] | 10.01 ± 0.049
TGCATATTACTTTTTCACATAAAAATGATCCGATTA [GTGCAC_negctrl_site526] | 9.94 ± 0.057
TTTTTTTTTTTTTTTTTTTTACCCCTTTTTCAAAAA [CACACA_negctrl_site1524] | 9.88 ± 0.45
AAAACATTGTTTATGTGTACATAATTATATTTACAA [XGTACX_site6926] | 11.4 ± 0.86
CATTAAAATTGAGAGATGCACTTTTTAAGACCTTGT | 10.3 ± 0.35
AAAAAAAATTAAATAAATAAATATACACATATATAT [GTGCAC_negctrl_site394] | 9.47 ± 0.26
CAAAAAACAACAGATCGTACAAAATATTATATATAT [XGTACX_site2285] | 10.7 ± 0.49

Sequence | gcPBM binding intensity (ln)
TATCCATATTTGTTCACACACACACCGATTTATATA [CACACA_site5888] | 10.22 ± 0.049
TTGAAAAATGAGCACACACACAAATACATACATATT [CACACA_site3231] | 10.3 ± 0.2
TTAACTCTGGAGAAAAGTACATAGTATCTGGTAACA [XGTACX_site4941] | 11.2 ± 0.99
TTTTAACAAAAAAAAAGAAAAGAAAAGAAAATAATA [XGTACX_negctrl_site530] | 9.73 ± 0.071
TATATTTATATCCACTTCGTTTAACGCACAGATATA [CACACA_negctrl_site954] | 10.2 ± 0.35
AAGTTTTTTTTTAACACACACATAATAAAATAAATA [CACACA_site446] | 10.1 ± 0.16
ATTATAAAAATATATTGTACACAAAAATGTTTATAT [XGTACX_site5066] | 11.3 ± 0.85
TGAGATATAAAAATATGTACTTATGTATAAATATTT [XGTACX_site7746] | 11.1 ± 0.66
CCAAATTTATTTTGTAGTACTCCGTATAGATCAACA [XGTACX_site7945] | 11.6 ± 0.96
ATATACTATATTTTAACACACAAAAAAAAAAAATAT [CACACA_site1091] | 9.985 ± 0.035
TCTTATTCAAACGTAAAACGAAGAAGAAAAAAAAAA [CACACA_negctrl_site149] | 9.93 ± 0.17
AAATTATATATATTACGTACATAGAACTTTACAGAA [XGTACX_site6646] | 11.4 ± 0.97
ATGTTACACCGACACACACACATAAAAAAACAAAAA [CACACA_site5750] | 10.3 ± 0.4
ATAAATAAATAAATAAATAAATATACATATACATAT [CACACA_negctrl_site205] | 9.805 ± 0.092
AAGAAATAAAAAGAATGTACACAATATGTATTATAA [XGTACX_site4733] | 11.5 ± 0.69
TGGACAATTGTTTATTGTACTTAAATTTTATGTTCT [XGTACX_site8974] | 11.3 ± 0.95
AGCATTTTAAGTTATACACACATTTTGAATCTATAT [CACACA_site7599] | 9.96 ± 0.071
AAAAAAAATTCGTGTGTGCGCATATATAATATATAA | 10.31 ± 0.092
AAGCATACATCAAGCACACACACACCCACAGAGACA [CACACA_site4362] | 10.2 ± 0.26
TACATACATATATTATGTACATATTTTATTTTTATT [XGTACX_site1642] | 11.2 ± 0.7
TTTCTTTTAATAATTAAATATTTATTTATGATTATA [TGCATGCA_negctrl_site30] | 9.46 ± 0.028
TATGTAGTTTTAAAGTGTACTTATATATATTAATTG [XGTACX_site378] | 11.4 ± 0.87
